PMC4336329 (PLoS ONE, 2015)
Out of some 310,000 compounds screened, about 14,000 (4.5%) showed an effect of 50% or more. The effect is printed as a negative number. The list shows a part of the results.

The molecules below were run against human ether-à-go-go-related gene (hERG) potassium channel (human, UniProt Q12809) (assay: primary screen, population patch clamp on CHO cells stably expressing hERG).
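Also: peak tail current of the secondary pulse compared with the same well before compound.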

Sequence of human ether-à-go-go-related gene (hERG) potassium channel (Q12809 whole entry, looked up): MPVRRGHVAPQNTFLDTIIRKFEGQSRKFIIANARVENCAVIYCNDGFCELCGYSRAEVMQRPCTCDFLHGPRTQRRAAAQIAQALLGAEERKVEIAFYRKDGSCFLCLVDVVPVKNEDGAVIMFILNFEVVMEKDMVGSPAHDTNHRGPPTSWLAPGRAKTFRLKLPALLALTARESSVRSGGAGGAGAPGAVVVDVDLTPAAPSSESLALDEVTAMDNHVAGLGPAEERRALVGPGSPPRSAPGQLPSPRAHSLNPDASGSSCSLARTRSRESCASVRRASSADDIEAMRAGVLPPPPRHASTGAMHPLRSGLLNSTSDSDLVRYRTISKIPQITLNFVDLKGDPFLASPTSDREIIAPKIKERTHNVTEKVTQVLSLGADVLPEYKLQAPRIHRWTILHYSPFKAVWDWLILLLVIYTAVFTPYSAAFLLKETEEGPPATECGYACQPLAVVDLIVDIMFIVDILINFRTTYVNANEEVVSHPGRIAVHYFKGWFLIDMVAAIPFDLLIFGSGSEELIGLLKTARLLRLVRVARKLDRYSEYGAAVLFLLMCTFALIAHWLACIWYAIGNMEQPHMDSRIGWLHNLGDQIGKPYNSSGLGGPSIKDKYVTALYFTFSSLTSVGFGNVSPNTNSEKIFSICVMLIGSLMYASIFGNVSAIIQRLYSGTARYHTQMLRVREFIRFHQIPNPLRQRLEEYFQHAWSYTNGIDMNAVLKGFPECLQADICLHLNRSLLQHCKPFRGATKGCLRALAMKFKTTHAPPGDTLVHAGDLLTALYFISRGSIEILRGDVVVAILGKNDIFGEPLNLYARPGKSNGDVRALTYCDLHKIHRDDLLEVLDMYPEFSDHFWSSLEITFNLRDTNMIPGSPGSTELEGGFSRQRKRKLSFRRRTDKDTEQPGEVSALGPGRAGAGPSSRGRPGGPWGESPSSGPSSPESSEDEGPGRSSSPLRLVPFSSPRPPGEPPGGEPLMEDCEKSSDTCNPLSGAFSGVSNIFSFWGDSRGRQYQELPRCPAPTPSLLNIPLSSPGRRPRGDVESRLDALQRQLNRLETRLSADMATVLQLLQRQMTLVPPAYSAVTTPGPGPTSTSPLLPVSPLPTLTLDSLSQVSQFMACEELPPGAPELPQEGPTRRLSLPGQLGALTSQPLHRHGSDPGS

Compound	hERG current change (%, negative = inhibition) at 10uM [%]
O=C(Nc1cccc(OC(=O)c2ccco2)c1)c1ccco1	3.77
CCOCCOc1nc2c(c(=O)n(C)c(=O)n2C)n1Cc1ccc(C)cc1	-10.1
O=C(O)CSc1sc(=S)sc1SCC(=O)O	13.7
COc1cccc(CNC(=O)CCC(=O)N2CCSc3ccccc32)c1OC	4.66
CC(=O)C1(O)C(C)CC2C3CCC4CC(O)CCC4(C)C3=CCC21C (centres unmarked)	12.3
CCOC(=O)N1CCc2c(sc3nc4n(c(=O)c23)N=C(C)CS4)C1	-5.12
COc1ccc(NC(=O)CNS(=O)(=O)c2cccs2)cc1	-5.7
O=C(NCc1ccc2[nH]c3c(c2c1)CCCC3)c1ccc(S(=O)(=O)N2CCCCC2)cc1	16.7
CN(C)C=O.O=C(/C=C/c1cccs1)Nc1ccc(N2CCOCC2)c(S(=O)(=O)Nc2cc(Cl)ccc2Cl)c1	10.1
COc1cc2ccccc2cc1C(=O)N1CCN(C)CC1.Cl	-7.56
O=C(NNC(=O)C1CC1c1ccccc1)c1ccccc1F (centres unmarked)	27.5
Cc1ccc(NC(=O)CCc2nc3ccccc3c(=O)[nH]2)cc1S(=O)(=O)N1CCOCC1	-27.2
CCCC(CCC)C(=O)Nc1ccncc1	-6.67
CC(=O)Nc1ccc(NS(C)(=O)=O)cc1	12.8
COC(=O)c1nc2ccc(N3CCOCC3)cc2c(C)c1C(=O)OC	7.43
Cc1ccc(CNC(=O)Nc2ccc(C)cc2)cc1	3.58
CN1CCN(CCC(=O)Nc2ccc3c(c2)OCO3)CC1	1.57
Cc1cc(NC(=O)C2CCC2)n(-c2ccccn2)n1	-5.34
Cc1cccc(NC(=O)NC(=O)c2ccccc2)n1	-7.58
CCOc1ccccc1Nc1ncccc1C(=O)O	3.32
CCOC1=CC(=O)N(Cc2ccccc2)C1	5.93
NC(=O)CSc1ncnc2c1nnn2Cc1ccc(F)cc1	9.97
COC(=O)[C@H]1C[C@@H](c2ccccc2)[C@H](C)C1(C)C	9.99

Compound	hERG current change (%, negative = inhibition) at 10uM [%]
CCOc1ccc2oc(C(=O)Nc3ccc(N4CCOCC4)cc3)c(C)c2c1	8.05
CC(C)(C)OC(=O)CNC(=O)c1nc[nH]c1C(=O)N1CCN(c2ccccc2)CC1	-4.58
Cc1nnc(NC(=O)c2cc(-c3ccco3)nc3ccccc23)s1	2.18
Cc1cc(C(=O)CSc2nnc(-c3ccc(F)cc3)o2)c(C)n1CC1COc2ccccc2O1 (centres unmarked)	16.2
COc1ccc(C)cc1N(CC(=O)NC(C)c1ccccc1)S(C)(=O)=O (centres unmarked)	-3.86
CCc1ccc(NC(=O)Nc2cc(C(=O)O)ccc2N2CC3CC(C2)c2cccc(=O)n2C3)cc1 (centres unmarked)	20.4
Cn1c(SCC(=O)Nc2ccc(Br)cc2F)nnc1-c1ccco1	-26.7
CC(C)CCOc1ccc(C(=O)C[N+]2(C)CCOCC2)cc1.[I-]	9.61
COC(=O)C1=C(C)N(CC2CCCO2)C(=O)C1 (centres unmarked)	3.11
CN(Cc1cnn(C)c1)C(=O)C1CCC(=O)N(Cc2cccc(F)c2)C1 (centres unmarked)	-49.8
CC1CCCCN1CC(O)COc1ccc(OCC(O)CN2CCCCC2C)cc1 (centres unmarked)	16.4
Cc1cc(-c2nc(C)c(C(=O)NNS(=O)(=O)c3ccc(Cl)cc3Cl)s2)no1	2.71
Cc1ccc(OCC(=O)O/N=C(\N)c2ccccn2)cc1	12
CCN1N=C(c2ccccc2)Cn2c1nc1ccccc12	-19.6
CCCNC(=O)C1=C(C)C(=O)OC12CCC(C)CC2 (centres unmarked)	1.61
Cc1ccc(NC(=O)C2CCN(S(=O)(=O)c3cccs3)CC2)cc1	-22.4
C/C(=N/NC(=O)CNC(=O)c1ccccn1)c1ccccc1	11.5
O=C(O)c1ccc(CNC(=O)C23CC4CC(CC(C4)C2)C3)cc1	28.4
Cc1ccc(S(=O)(=O)N(C)C)cc1NC(=O)COC(=O)C1CC1	16.2
Cc1[nH]c(C)c(S(=O)(=O)Nc2ccccc2Cl)c1C(=O)N1CCCC1	15.7
Cc1cnc(C(=O)N2CCCC(C(=O)c3ccc(C(F)(F)F)cc3)C2)cn1 (centres unmarked)	-17.7
CCOC(=O)c1cnc(SCC(=O)Nc2ccc(NC(=O)CC)c(OC)c2)nc1N	-1.97
COc1ccc(-c2nc(CSCC(=O)N3CCC4(CC3)OCCO4)c(C)o2)cc1OC	13.1

Compound	hERG current change (%, negative = inhibition) at 10uM [%]
CSc1cccc(NC(=S)N(CCC(C)C)C2CCN(C(C)C)CC2)c1	-52.5
CCOC(=O)COc1ccccc1/C=C1\NC(=O)NC1=O	-13.8
CC(=O)Nc1nc2n(n1)C(c1ccc(F)cc1)C=C(c1ccccc1)N2 (centres unmarked)	-9.63
O=c1oc2ccccc2cc1-c1csc(Nc2ccc(O)cc2)n1	17.8
COc1ccc(C(=O)Nc2cccc(C(C)=O)c2)cc1S(=O)(=O)N1CCOCC1	-5.82
CCOc1ccc(CO/N=C/c2c(C)[nH]c(=O)[nH]c2=O)cc1	2.31
CCOC(=O)C1CCN(c2ncnc3cc(OC)c(OC)cc23)CC1	-7.62
CCOC(=O)C(c1ccccc1)C(Nc1ccc(F)cc1)c1ccccn1 (centres unmarked)	-6.07
CC(O)[C@H]1CC[C@H]2[C@@H]3CC[C@H]4C[C@@H](O)CC[C@]4(C)[C@H]3C(=O)C[C@]12C (some centres unmarked)	-21.8
O=C(Nc1cc(Cl)ccc1N1CCOCC1)c1cc2ccccc2o1	14.2
O=C1CCCC2=C1C(c1cccnc1)Nc1ccccc1N2 (centres unmarked)	5.41
CC(C)c1ccc(N(CC(=O)NCCSC(C)(C)C)S(C)(=O)=O)cc1	-13.8
COc1cc2cc(CN(Cc3cccnc3)C(=O)NCc3ccccc3)c(=O)[nH]c2cc1OC	-12.6
COc1ccccc1NC(=O)Cn1nnc(C(=O)NCc2ccc3c(c2)OCO3)c1N	-1.82
OC(c1ccccc1)(c1ccc(Cl)cc1)C1CN2CCC1CC2 (centres unmarked)	-56
C/C=C(/C)C(=O)O[C@@H]1c2cc3c(c(OC)c2-c2c(cc(OC)c(OC)c2OC)[C@@H](OC(C)=O)[C@@H](C)[C@H]1C)OCO3	4.78
CSC1=NCCN1C(=O)Cc1ccc(F)cc1	10.3
Cc1ccc(Cl)c(NC(=O)CN2CCNC(=O)C2)c1Cl	3.08
CCOC(=O)c1nn(-c2ccc3c(c2)OCCO3)cc1O	-2.3
CC(C)C[C@H](NC(=O)N1CC(=O)Nc2ccccc21)C(=O)N1CCC(C(=O)O)CC1	14.7
COc1ccc(N/C=C2\C(=O)c3c(sc(C)c3C)N(C)S2(=O)=O)cc1	-14
CCOc1ccc(C(=O)NCC(=O)OC2CCOC2=O)cc1OCC (centres unmarked)	12.7
Cc1cc(C)n(CC(=O)NNC(=O)CCCOc2ccc(Cl)c(C)c2)n1	15.9

Compound	hERG current change (%, negative = inhibition) at 10uM [%]
COc1ccc(C(=O)N2CCN(c3cccc(Cl)c3)CC2)cc1S(=O)(=O)NC1CC1	-63.5
Cc1nc(N2CCOCC2)sc1C(=O)NN	14.8
Cc1ccc(C(=O)NCCc2ccc(S(=O)(=O)N3CCCC3)cc2)cc1	-0.599
CC1CN(S(=O)(=O)c2ccc(C(=O)Nc3nnc(-c4ccccn4)o3)cc2)CC(C)O1 (centres unmarked)	7.07
Cc1ccc(CCN2CC(C(=O)NCCc3ccccc3)CC2=O)cc1 (centres unmarked)	-3.16
C=CCn1c(C(CC)CC)nc2ccccc21	6.91
O=NNc1nc2ccccc2n1Cc1ccccc1	-1.83
CCN(CC(=O)Nc1c(F)cccc1F)C(=O)c1cc(C)oc1C	-5.71
Cc1ccc(S(=O)(=O)N(C)C)cc1NC(=O)COC(=O)c1ccc2c(=O)n3c(nc2c1)CCC3	-9.32
Cc1ccc(N=CNc2ccc(C)cc2C)c(C)c1	16.8
Cc1cc(NC(=O)CSc2nnc(C)c(=O)n2N)no1	11.8
COc1ccc(CNC2CCCc3ccccc32)c(OC)c1 (centres unmarked)	-36.9
Cc1ccc2nsnc2c1S(=O)(=O)N1CCN(CCc2ccccc2)CC1	-42.6
CC1CCN(CCc2nc3cc(NS(=O)(=O)c4ccccc4)ccc3n2C)CC1	-65.5
CCN(CC)C(=O)/C(=C/c1cn(S(=O)(=O)N(C)C)c2ccccc12)NC(=O)c1ccc(OC)cc1	0.315
COc1ccc(-c2nn3c(-c4ccco4)nnc3s2)cc1OC	-39.9
O=C(NCc1ccc2c(c1)OCO2)C1CCN(c2ccc(S(=O)(=O)N3CCCC3)cc2)CC1	-23.8
Cc1ccc(-c2cc(C(=O)NCc3cn(C)nc3C)c3cc(Br)ccc3n2)cc1	5.18
O=C(COc1ccc(F)cc1)N1CCCCCCC1	12.5
CCOC(=O)NC(=O)COC(=O)c1ccc(Sc2ncn[nH]2)c([N+](=O)[O-])c1	26.8
